Laboratory results published in the supplement of paper PMC6089552.
Screen size: about 3,200 compounds; about 300 (9.4%) showed activity. The list shows a part of the results, in another mix than the full data.

Test system: A673/TR/shEF
Test: cell viability (LOESS-normalised, relative to median of negative controls) (log2 ratio); higher = more viable cells (less compound effect), active = hit call of the paper (over 3 MAD below the median)
Settings: treatment time: 72 h
Procedure, shortened: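 A673/TR/shEF Ewing sarcoma cells were plated at 1,500 per well in 384-well plates and cultured with or without doxycycline, added 24 h before compounds, to induce EWS-FLI1 shRNA knockdown. Library compounds at two or more concentrations, alongside DMSO controls, were applied for three days. Cell viability was measured by CellTiter-Glo luminescence on an Envision reader. Readings were LOESS-corrected per plate, divided by the median of negative controls and log2-transformed, and hits were wells lying at least three median absolute deviations from the median of all screened wells.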

[1] = 0.25 µM, library screen: screen1, EWS-FLI1 expression: high (no doxycycline)
[2] = 0.25 µM, library screen: screen1, EWS-FLI1 expression: low (doxycycline-induced shRNA knockdown)
[3] = 2.5 µM, library screen: screen1, EWS-FLI1 expression: high (no doxycycline)
[4] = 2.5 µM, library screen: screen1, EWS-FLI1 expression: low (doxycycline-induced shRNA knockdown)
[5] = 0.25 µM, library screen: screen2, EWS-FLI1 expression: high (no doxycycline)
[6] = 0.25 µM, library screen: screen2, EWS-FLI1 expression: low (doxycycline-induced shRNA knockdown)
[7] = 2.5 µM, library screen: screen2, EWS-FLI1 expression: high (no doxycycline)
[8] = 2.5 µM, library screen: screen2, EWS-FLI1 expression: low (doxycycline-induced shRNA knockdown)
[9] = 0.103 µM, library screen: screen3, EWS-FLI1 expression: high (no doxycycline)
[10] = 0.103 µM, library screen: screen3, EWS-FLI1 expression: low (doxycycline-induced shRNA knockdown)
[11] = 0.308 µM, library screen: screen3, EWS-FLI1 expression: high (no doxycycline)
[12] = 0.308 µM, library screen: screen3, EWS-FLI1 expression: low (doxycycline-induced shRNA knockdown)
[13] = 0.926 µM, library screen: screen3, EWS-FLI1 expression: high (no doxycycline)
[14] = 0.926 µM, library screen: screen3, EWS-FLI1 expression: low (doxycycline-induced shRNA knockdown)
[15] = 2.8 µM, library screen: screen3, EWS-FLI1 expression: high (no doxycycline)
[16] = 2.8 µM, library screen: screen3, EWS-FLI1 expression: low (doxycycline-induced shRNA knockdown)
[17] = 8.3 µM, library screen: screen3, EWS-FLI1 expression: high (no doxycycline)
[18] = 8.3 µM, library screen: screen3, EWS-FLI1 expression: low (doxycycline-induced shRNA knockdown)
[19] = 25 µM, library screen: screen3, EWS-FLI1 expression: high (no doxycycline)
[20] = 25 µM, library screen: screen3, EWS-FLI1 expression: low (doxycycline-induced shRNA knockdown)

Measured: cell viability (log2)

CC(C)C1=CC2=CC[C@@H]3[C@](C)(CCC[C@@]3(C)C(=O)O)[C@H]2CC1
inactive: [1] 0.0502 | [2] 0.122 | [3] 0.133 | [4] 0.195

CCCn1c(=O)c2c(ncn2C)n(CCC)c1=O
inactive: [5] 0.0901 | [6] 0.0971 | [7] 0.0465 | [8] 0.0214

CCOc1cc(/C=C2\SC(=S)N(CCS(=O)(=O)O)C2=O)ccc1O
inactive: [1] -0.00487 | [2] 0.0852 | [3] 0.0865 | [4] 0.0812

C[C@H]1C[C@H]2[C@@H]3CCC4=CC(=O)C=C[C@]4(C)[C@@]3(F)[C@@H](O)C[C@]2(C)[C@@]1(O)C(=O)CO
inactive: [1] 0.0929 | [2] -0.0742 | [5] 0.0662 | [6] 0.0634 | [3] 0.134 | [4] -0.324 | [7] 0.0211 | [8] 0.104

C[C@@H]1C[C@H]2[C@@H]3C[C@H](F)C4=CC(=O)C=C[C@]4(C)[C@@]3(F)[C@@H](O)C[C@]2(C)[C@H]1C(=O)COC(=O)C(C)(C)C
inactive: [1] 0.00935 | [2] -0.0577 | [3] 0.0831 | [4] -0.0529

O=C(O)/C=C/c1ccc(Cn2ccnc2)cc1
inactive: [9] -0.0376 | [10] -0.0446 | [11] 0.0658 | [12] 0.00819 | [13] -0.0199 | [14] 0.0462 | [15] 0.0246 | [16] 0.0247 | [17] -0.0228 | [18] 0.0719 | [19] 0.0138 | [20] 0.0675

COc1cc2nccc(Oc3ccc(NC(=O)C4(C(=O)Nc5ccc(F)cc5)CC4)cc3)c2cc1OC
inactive: [9] -0.0307 | [10] 0.0963 | [11] -0.00958 | [12] -0.0156 | [13] 0.0226 | [14] 0.0982 | [15] 0.0312 | [16] -0.00706 | [17] -0.0381 | [18] 0.0419 | [19] -0.135 | [20] 0.0518

COC(=O)C[C@H]1C(C)(C)C(=O)[C@@H]2CC3=C4CC(OC)O[C@@H](c5ccoc5)[C@]4(C)CCC3[C@@]1(C)C2=O (stereo partly drawn)
inactive: [1] 0.115 | [2] 0.14 | [3] 0.0882 | [4] 0.172

CN1CCN(c2nc3cc(C(F)(F)F)ccc3n3cccc23)CC1
inactive: [5] 0.138 | [6] -0.0123 | [7] 0.117 | [8] 0.12

C[C@@H]1O[C@@H](O[C@H]2[C@H](O[C@H]3CC[C@@]4(C)[C@@H](CC[C@]5(C)[C@@H]4CC=C4[C@@H]6CC(C)(C)CC[C@]6(C(=O)O[C@@H]6O[C@H](CO[C@@H]7O[C@H](CO)[C@@H](O[C@@H]8O[C@@H](C)[C@H](O)[C@@H](O)[C@H]8O)[C@H](O)[C@H]7O)[C@@H](O)[C@H](O)[C@H]6O)CC[C@]45C)[C@]3(C)CO)OC[C@H](O)[C@@H]2O)[C@H](O)[C@H](O)[C@H]1O
inactive: [1] 0.0348 | [2] 0.044 | [3] 0.139 | [4] 0.126

CCC1=C(C)CN(C(=O)NCCc2ccc(S(=O)(=O)NC(=O)NC3CCC(C)CC3)cc2)C1=O (stereo not drawn)
inactive: [9] 0.065 | [10] 0.0619 | [11] -0.018 | [12] 0.0454 | [13] -0.0554 | [14] -0.00949 | [15] 0.0264 | [16] -0.0201 | [17] -0.0146 | [18] -0.0784
active: [19] -0.481 | [20] -0.408

CCOC(=O)CCCCCCCCCCCCC1C=CCC1 (stereo not drawn)
inactive: [1] 0.0735 | [2] 0.0764 | [3] 0.201 | [4] 0.124

CCn1nc(C(=O)O)c(=O)c2cc3c(cc21)OCO3
inactive: [1] 0.0624 | [2] 0.132 | [5] 0.127 | [6] 0.109 | [3] 0.197 | [4] 0.0394 | [7] 0.119 | [8] 0.118

Cc1cc(/C=C/c2ccc3cc(N(C)C)ccc3[n+]2C)c(C)n1-c1ccccc1
inactive: [1] 0.0226 | [2] 0.0827 | [3] -0.0806 | [4] 0.102

COc1ccccc1/C=C1\SC(=S)N(C2CCS(=O)(=O)C2)C1=O (stereo not drawn)
inactive: [1] 0.0633 | [2] 0.0907 | [3] 0.0733 | [4] 0.0539

COCCOC(=O)C1=C(C)NC(C)=C(C(=O)OC/C=C/c2ccccc2)C1c1cccc([N+](=O)[O-])c1 (stereo not drawn)
inactive: [9] 0.108 | [10] 0.0834 | [11] 0.129 | [12] 0.0492 | [13] 0.0684 | [14] 0.0642 | [15] 0.157 | [16] 0.0317 | [17] 0.0951 | [18] 0.0494 | [19] 0.0841 | [20] -0.00603

Cc1cnc(NC(=O)C2=C(O)c3ccccc3S(=O)(=O)N2C)s1
inactive: [5] 0.16 | [6] 0.0995 | [7] 0.124 | [8] 0.125
